Measured values: patent US20250000993A1, “ANTI-HUMAN CD33 BET DEGRADER ANTIBODY-DRUG CONJUGATES” (AbbVie Inc., priority 2023, published 2025)

Experiments:
control HEK-293 cells = assay: Flow cytometry (FACS titration) binding to control HEK-293 cells; conditions: 4° C. for 2 hours
[1] = target: CD33-expressing HEK-293 cells (Homo sapiens, UniProt P20138); assay: Flow cytometry (FACS titration) binding to CD33-expressing HEK-293 cells; conditions: 4° C. for 2 hours
Chain of CD33-expressing HEK-293 cells (P20138 18-364): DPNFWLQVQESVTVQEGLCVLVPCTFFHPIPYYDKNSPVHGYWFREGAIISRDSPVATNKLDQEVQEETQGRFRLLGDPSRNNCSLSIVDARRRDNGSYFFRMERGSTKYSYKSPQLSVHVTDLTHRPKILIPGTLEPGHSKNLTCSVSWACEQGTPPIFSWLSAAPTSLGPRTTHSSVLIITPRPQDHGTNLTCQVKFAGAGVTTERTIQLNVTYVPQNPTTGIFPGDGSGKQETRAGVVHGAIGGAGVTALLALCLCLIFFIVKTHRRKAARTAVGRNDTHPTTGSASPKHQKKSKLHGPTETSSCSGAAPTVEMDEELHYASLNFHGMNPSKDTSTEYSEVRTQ

B1: mAb1: recombinant, humanized, IgG1 kappa monoclonal antibody that binds to CD33; heavy chain SEQ ID NO: 9 or 10 (Y296C, N297A), light chain SEQ ID NO: 11 (antibody)
heavy: EVQLVESGGGVVQPGRSLRLSCAASGFTLSDYAMAWVRQAPGKGLEWVATISYDAGRTYYRD[sequence of about 20 residues not given]MNSLRAEDTAVYYCERPPGVYYGSYWGQGTMVTVSSASTKGPSVFPLAPSSKSTSGGTAALGCLVKDYFPEPVTVSWNSGALTSGVHTFPAVLQSSGLYSLSSVVTVPSSSLGTQTYICNVNHKPSNTKVDKKV[sequence of human IgG1 Fc with Y296C N297A (EU numbers) not given]
light: DIQMTQSPSSLSASVGDRVTITCRASQDISNFLNWYQQKPGKVPKLLIYYTSNLQSGVPSRFSGSGSGTDFTLTISSLQPEDVATYYCQQYDESPPTFGQGTKLEIKRTVAAPSVFIFPPSDEQLKSGTASVVCLLNNFYPREAKVQWKVDNALQSGNSQESVTEQDSKDSTYSLSSTLTLSKADYEKHKVYACEVTHQGLSSPVTKSFNRGEC
Control HEK-293 cells
  binding to control HEK-293 cells: not the control HEK-293 cells
[1]
  binding to CD33-expressing HEK-293 cells: binds specifically
